Laboratory results published in PubChem BioAssay (NCATS).
Inconclusive results, whose numbers are uncertain, are shown with a selection of clear calls. Potencies of inconclusive entries are left out as doubtful fits. Activity calls are given as the source filed them. Calls follow the shape of the dose curve; as a rule, active = well fitted inhibition curve with a large enough effect; inconclusive = small, poorly fitted or top-dose-only effect; inactive = no such curve, though single readings can be large or run the other way.

Test: Primary fluorescence-based thiol-reactive (MSTI) qHTS assay for identification of artifact compounds. (AID 1845221);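 also: thiol-reactive compounds lower the probe fluorescence signal; nearly all actives have a fitted effect of over 65% in size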
Details: MSTI thiol-reactivity probe, 1 h; series mostly up to 53.8 µM
Source text: PI: Alexander Tropsha Ph.D.
UNC Eshelman School of Pharmacy
University of North Carolina, Chapel Hill, North Carolina
Hits from high-throughput screening (HTS) of chemical libraries are often false positives due to their interference with the assay detection technology. In response to this problem, we generated the largest publicly available library of chemical liabilities and developed a free webtool to predict HTS artifacts, both of which are described herein. More specifically, we generated, curated, and integrated HTS datasets for thiol reactivity, redox activity, and luciferase (firefly and nano) activity. Using these curated datasets, we developed and validated several Quantitative Structure-Interference Relationship (QSIR) models to predict nuisance behavior. […] These models were employed for virtual profiling of the National Center for Advancing Translational Science's (NCATS) in-house library, and 256 compounds for each assay were selected for the experimental validation of nuisance behavior. The BA for these external predictions ranged from 58 to 78% for compounds within the applicability domains of the models. […] The models developed in this study, along with aggregation models previously developed by our group (SCAM Detective) were implemented in "Liability Predictor," an online tool which may be used as part of chemical library design or for triaging HTS hits. Both the models and the curated datasets are publicly available at https://liability.mml.unc.edu/.
SEQUENCE No. (e.g., 1, 2, 3, etc.); […] (e.g., Cells, Incubation, Reagent, etc.); VALUE; DESCRIPTION.
1; Reagent; 4 uL; […].
2; Compounds and control; 16 nL; Kalypsis pin tool (Wako USA) equipped with a 1536-well pin head.
4; Detection; Fluorescence, ViewLux microplate reader, 525 nm excitation, 598 nm emission.
NOTES (numbers refer to Sequence numbers above)
1. Assays determining (E)-2-(4-mercaptostyryl)-1,3,3-trimethyl-3H-indol-1-ium (MSTI) reactivity were performed as previously described in the literature with modifications for the quick identification of compounds reacting with thiol. In brief, 4 uL of MSTI or positive control Acetyl-MSTI (final concentrations of 4 uM and 4 uM, respectively) in assay buffer (2% DMSO in 1X PBS pH 7.4) was dispensed into all wells of a 1536-well assay plate (solid-bottom black plate; Greiner Bio One, Monroe, NC).
2. A Wako Pin-tool (Wako Automation, Richmond, VA) was used to transfer 16 nL of compounds (consisting of 7-plates in qHTS format, final concentration range 18.3 nM to 114 uM) or control MLS001163887 (final concentration range 1.22 nM to 40 uM).
3. Plates were centrifuged (121xg, 15 seconds) and incubated for 1 hour at room temperature protected from light.
4. Samples were read for fluorescence (Ex/Em = 525(20)/598(25) nm) on a ViewLux CCD imager (PerkinElmer). Data were normalized to Acetyl-MSTI (0% activity) and MSTI (100% activity) and the resulting percent inhibition data were fitted to a 4-parameter Hill equation using NCATS in-house software.
Potency is read from the fitted curve at half-maximal effect; tags tell the direction and shape of the fitted curve.

SMILES | Potency
COc1cc2nc(N3CCN(C(=O)COc4c(OC)cccc4C(C)C)CC3)nc(N)c2cc1OC | inconclusive [inhibitor, partial curve, poor fit]
CC(C)n1nc(-c2cc3cc(O)ccc3[nH]2)c2c(N)ncnc21 | active: 10.6 µM
CCNC(=O)Nc1ccc(-c2nc3c(c(N4CCOC[C@@H]4C)n2)CCN(c2ncccn2)C3)cc1 | inactive
CCN(CC)Cc1cccc(/C=C/c2nc3ccc(F)cc3c(=O)n2-c2ccccc2Cl)n1 | inactive
CC1=CC(=O)C2C(C)(C)CC(O)CC2(C)C1CO (stereo not given) | inconclusive [inhibitor, partial curve]
O=S(=O)(NCc1cccc2ccccc12)c1cc(Cl)c(Oc2cccc(N3CCNCC3)c2)s1 | inactive
Nc1nc(Cl)nc2c1ncn2C1OC(CO)C(O)C1F (stereo not given) | inactive
C=C1C(=O)OC2CC(C)=C(C(C)CCCO[C@@H]3O[C@H](CO)[C@@H](O)[C@H](O)[C@H]3O)C(O)C12 (stereo not given in full) | inconclusive [inhibitor, partial curve]
C/C=C(\C)C(=O)O[C@H]1[C@@H](O[C@]2(COC(=O)CC(C)C)O[C@H](COC(=O)C(C)C)[C@@H](OC(C)=O)[C@@H]2O)O[C@H](COC(C)=O)[C@@H](O)[C@@H]1O | inconclusive [inhibitor, single point]
C=CC(=O)N1CCC[C@@H](n2nc(-c3cccc(C(=O)Nc4ccc(C(C)C)c(C)c4)c3)c3c(N)ncnc32)C1 | inconclusive [inhibitor, partial curve, poor fit]
CN1CCN(Cc2ccc(-c3cnc4[nH]cc(-c5ccc6[nH]ccc6c5)c4c3)cc2)CC1 | inconclusive [inhibitor, full curve]
COc1ccc(C(O[C@@H]2O[C@H](CO)[C@@H](O)[C@H](O)[C@H]2O)C(CO)Oc2ccc(/C=C/CO)cc2OC)cc1O (stereo not given in full) | active: 5.19 µM
OC1C=C2C3CN(Cc4cc5c(cc43)OCO5)C2CC1O (stereo not given) | inconclusive [inhibitor, partial curve, poor fit]
CC[C@@H](Nc1c(Nc2cccc(C(=O)N(C)C)c2O)c(=O)c1=O)c1ccc(C)o1 | active: 2.38 µM
CC(=O)O[C@@H]1C2=C(O)C(=O)[C@](C)(OC(C)=O)C(=O)C2=CO[C@@]12O[C@@H](C)CC[C@H]2OC(C)=O | inconclusive [inhibitor, full curve]
Cc1cc(C(C)Nc2ccccc2C(=O)O)c2nc(N3CCOCC3)cc(=O)n2c1 (stereo not given) | inconclusive [inhibitor, partial curve]
Cc1cnc(Nc2ccc(F)cc2Cl)nc1-c1c[nH]c(C(=O)NC(CO)c2cccc(Cl)c2)c1 (stereo not given) | active: 2.67 µM
CC(O)C(C)n1ncn(-c2ccc(N3CCN(c4ccc(OCC5COC(Cn6cncn6)(c6ccc(Cl)cc6Cl)O5)cc4)CC3)cc2)c1=O (stereo not given) | inconclusive [inhibitor, full curve, poor fit]
C[C@@H](NC(=O)C(=O)c1c[nH]c2ccc([N+](=O)[O-])cc12)c1ccccc1 | inconclusive [inhibitor, full curve]
COc1cc(/C=C/C(=O)OC2CC(C)=C(C(=O)O)/C2=C/CO[C@@H]2O[C@H](CO)[C@@H](O)[C@H](O)[C@H]2O)ccc1O (stereo not given in full) | active: 4.12 µM

SMILES | Potency
CCC1=C(C)C(=O)C(C)CC12C(=O)CCC2C(=O)O (stereo not given) | inconclusive [inhibitor, partial curve]
C=Cc1cc(O)cc2nc(-c3ccc(O)c(F)c3)oc12 | inconclusive [inhibitor, partial curve]
COc1ccnc(CS(=O)c2nc3cc(OC(F)F)ccc3[nH]2)c1OC (stereo not given) | active: 21.2 µM
COc1ccc2c(c1)C[C@H](C(=O)Nc1ccc(-c3cn[nH]c3)cc1OCCN(C)C)CO2 | inactive
CC(C)(O)C1OC1C1=CC(=O)C2(C)OC2C1O (stereo not given) | inconclusive [inhibitor, partial curve]
CN(CCc1ccc(Nc2ncc(-c3cccnc3)s2)cc1)Cc1ccccc1 | inconclusive [inhibitor, full curve]
OC[C@H]1O[C@@H](Oc2ccc(O)c3cccc(O)c23)[C@H](O)[C@@H](O)[C@@H]1O | active: 0.927 µM
Cc1cc(CS(=O)(=O)c2ccccc2)cc(OCc2ccc(CN3CCC[C@@H]3CO)cc2)c1 | inactive
COc1ccc(N2CCN(C(=O)c3cc4c(s3)-c3ccccc3S(=O)(=O)C4)CC2)cc1 | inconclusive [inhibitor, partial curve, poor fit]
C=CC(=O)N1CCC[C@@H](n2nc(-c3ccc(Oc4ccccc4)cc3)c3c(N)ncnc32)C1 | inconclusive [inhibitor, single point]
CNC(=O)c1ccc2c(c1)CCO[C@H]2CCN1CCN(c2ccc(OC)cc2)CC1 | inconclusive [inhibitor, full curve]
C=C(C)[C@@H]1CC=C(COC(=O)NC(=O)c2ncn3c(=O)n(C)nnc23)CC1 | inconclusive [inhibitor, partial curve]
Cc1cc(C)c2c(c1)C(N(Cc1cc(C(F)(F)F)cc(C(F)(F)F)c1)c1nnn(C)n1)CCCN2CC1CCC(C(=O)O)CC1 (stereo not given) | inconclusive [inhibitor, partial curve, poor fit]
C=C1CC[C@H](O)CC1=C/C=C1\CCC[C@]2(C)[C@@H]([C@H](C)/C=C/[C@H](C)C(C)C)CC[C@@H]12 | inconclusive [inhibitor, partial curve, poor fit]
NC1(c2ccc(NC(=O)c3ccnc(-c4cc(C(=O)O)ccn4)c3)cc2)CC1 | inconclusive [inhibitor, single point]
CC(C)OC(=O)C1=CN(C(=O)c2ccc(F)c(F)c2)CC(C)(C)c2c1[nH]c1ccccc21 | inconclusive [inhibitor, partial curve]
CC(=O)NCC(=O)N1C2CCC1c1cc(Nc3ncc(C(F)(F)F)c(NC4CCC4)n3)ccc12 (stereo not given) | inactive
C=C(C)C(=O)O[C@H]1/C(C=O)=C\CC/C(CO)=C/[C@H]2OC(=O)C(=C)[C@@H]2[C@@H]1OC | active: 3.69 µM
C=C1C(=O)O[C@@H]2C3=C(C)CCC[C@]3(C)CC[C@@]12O | inconclusive [inhibitor, partial curve]
C/C1=C\CCC2=CC(OC2=O)C(C)(C)/C=C/C1=O (stereo not given) | inconclusive [inhibitor, partial curve, poor fit]
